Laboratory results reported in PubChem BioAssay AID504339 (National Center for Advancing Translational Sciences (NCATS), 2011).
“And” between values parts separate entries of the source, which are not always exact repeats. Equal values may be shown once. The whole screen tested about 390,000 compounds, of which about 17,000 (4.4%) were called active. The inconclusive results got no clear call from the source; some entries with a clear call stand among them for comparison. Calls come from the whole dose curve; as a rule, active = well fitted inhibition curve with a large enough effect; inconclusive = small, poorly fitted or top-dose-only effect; inactive = no such curve, though single readings can be large or run the other way. A potency beside an inconclusive call is a rough fit, not a confirmed value.

Each molecule was assayed against Lysine-specific demethylase 4A (Homo sapiens) (UniProt O75164) (assay: qHTS Assay for Inhibitors of JMJD2A-Tudor Domain). Conditions: AlphaScreen JMJD2A-Tudor / H3K4me3 peptide binding; series mostly up to 114 µM.
Note: nearly all actives have a fitted effect of over 50% in size.
Potency is the fitted concentration of half-maximal effect; tags give direction and shape of the fitted curve.

UniProt O75164, sequence (O75164 whole entry, looked up, the tested form may be a part): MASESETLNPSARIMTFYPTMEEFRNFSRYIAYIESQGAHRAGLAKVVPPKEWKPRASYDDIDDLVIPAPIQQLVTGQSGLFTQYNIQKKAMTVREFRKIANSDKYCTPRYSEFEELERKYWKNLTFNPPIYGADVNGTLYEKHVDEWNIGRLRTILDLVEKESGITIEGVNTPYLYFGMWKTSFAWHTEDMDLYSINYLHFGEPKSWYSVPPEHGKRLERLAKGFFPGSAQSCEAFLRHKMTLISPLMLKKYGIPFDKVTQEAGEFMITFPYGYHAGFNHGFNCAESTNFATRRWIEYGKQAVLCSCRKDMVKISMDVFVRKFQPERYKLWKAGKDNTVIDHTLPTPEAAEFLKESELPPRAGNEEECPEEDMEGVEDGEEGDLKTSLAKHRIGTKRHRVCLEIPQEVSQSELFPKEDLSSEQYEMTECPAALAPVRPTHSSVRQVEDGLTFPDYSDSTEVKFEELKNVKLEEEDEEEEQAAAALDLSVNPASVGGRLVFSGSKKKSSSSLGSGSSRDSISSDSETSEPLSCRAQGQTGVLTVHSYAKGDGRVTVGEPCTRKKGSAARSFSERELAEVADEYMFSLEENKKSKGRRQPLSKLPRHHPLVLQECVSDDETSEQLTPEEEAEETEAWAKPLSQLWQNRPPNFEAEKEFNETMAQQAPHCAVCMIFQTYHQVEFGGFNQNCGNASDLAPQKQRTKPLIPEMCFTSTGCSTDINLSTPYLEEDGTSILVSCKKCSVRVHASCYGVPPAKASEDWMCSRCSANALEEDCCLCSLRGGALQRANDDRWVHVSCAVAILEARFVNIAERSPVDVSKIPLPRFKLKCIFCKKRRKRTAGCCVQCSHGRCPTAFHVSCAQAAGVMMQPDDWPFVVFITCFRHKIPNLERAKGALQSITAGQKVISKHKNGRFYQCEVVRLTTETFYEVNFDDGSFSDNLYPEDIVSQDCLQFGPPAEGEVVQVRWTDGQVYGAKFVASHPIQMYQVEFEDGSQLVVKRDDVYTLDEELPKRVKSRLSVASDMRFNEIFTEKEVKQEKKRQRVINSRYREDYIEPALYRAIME

Potency, inconclusive:
COc1ccc(Cl)cc1NC(=S)NNC(=O)c1cccs1 50.1 µM [inhibitor, partial curve], Cc1nn(C)c(C)c1NC(=O)c1ccc(Cl)cc1 50.1 µM [inhibitor, partial curve], CSc1cc(-c2ccco2)oc1C(=O)c1ccco1 56.2 µM [inhibitor, partial curve], COc1ccc(C(=O)NC(=S)Nc2cccnc2)cc1Cl 25.1 µM [inhibitor, partial curve], O=C1c2ccccc2/C(=C\c2ccc3[nH]ccc3c2)N1c1ccccc1 63.1 µM [inhibitor, partial curve], Cc1ccccc1OCCOCCN1CCCCCC1 31.6 µM [inhibitor, single point], Cc1cc(C)n(-c2nc(SCCN3CCOCC3)c3c4c(sc3n2)CCCC4)n1 39.8 µM [inhibitor, partial curve], Cc1ccc(NC2Nc3cc(C)nn3S2)c(C)c1 (stereo unspecified) 2.82 µM [inhibitor, full curve], c1ccc(CN2CCN(c3nc(NCc4ccco4)c4ccccc4n3)CC2)cc1 56.2 µM [inhibitor, partial curve], CCc1ccccc1NC(=O)c1ccc(Cn2nc(N3CCN(c4ccccc4)CC3)ccc2=O)o1 44.7 µM [inhibitor, partial curve], COc1cc2c(cc1OC)C1(Nc3c-2c(Cc2ccccc2)nn3-c2ccccc2)C(=O)Nc2ccccc21 (stereo unspecified) 35.5 µM [inhibitor, partial curve], O=C(Nc1nc(-c2ccccc2)cs1)c1ccc(N2CCOCC2)c([N+](=O)[O-])c1 7.94 µM [inhibitor, full curve], CCOC(=O)C1(CCOc2ccccc2)CCN(Cc2cnc(C)[nH]2)CC1 25.1 µM [inhibitor, partial curve], COc1cc2c(cc1NC(=O)COCC(=O)O)oc1ccccc12 35.5 µM [inhibitor, partial curve], CC(NC(=O)/C(=C\c1ccco1)NC(=O)c1ccccc1Br)C(=O)O (stereo unspecified) 28.2 µM [inhibitor, partial curve], CC(C)CNC(=O)C1Nc2ccccc2C2C=CCC12 (stereo unspecified) 89.1 µM [inhibitor, partial curve], CCCC(=O)OCC(=O)c1[nH]c(C)c(C(C)=O)c1C 28.2 µM [inhibitor, single point], CCc1ccc(NC(=O)C2CCCN2S(=O)(=O)c2ccc3nc(-c4ccccc4)[nH]c3c2)cc1 (stereo unspecified) 20 µM [inhibitor, partial curve], COc1cccc(NC(=O)CN(C)C(=O)c2cc(-c3ccc(F)cc3)nc3ccccc23)c1 56.2 µM [inhibitor, partial curve], CCOc1ccc2nc3cc(NCc4ccc(OC)cc4)ccc3c(N)c2c1 63.1 µM [inhibitor, partial curve, poor fit], Cc1ccc(Cn2c(C(C)Nc3nc(-c4ccc(F)cc4)cs3)nc3cc(C(F)(F)F)ccc32)cc1 (stereo unspecified) 35.5 µM [inhibitor, partial curve], CC(=O)c1ccccc1NS(=O)(=O)c1cccc2nsnc12 89.1 µM [inhibitor, partial curve], CCOc1cc(N2CCOCC2)c(OCC)cc1NC(=O)c1ccc(S(=O)(=O)N2CC(C)OC(C)C2)cc1 (stereo unspecified) 56.2 µM [inhibitor, partial curve], CN1CCN(c2nc(-c3cccs3)cs2)CC1 50.1 µM [inhibitor, partial curve], COc1ccc(OC[C@@H](O)CNC(=O)c2cccc3c2C(=O)c2ccc(-c4ccc(F)cc4OCc4ccccc4)cc2S3(=O)=O)cc1 3.16 µM [inhibitor, full curve, poor fit]

Potency, active:
C#CCCCCCCC#CCN(C)C 1.78 µM, C/C(CC(=O)NC1CCCCCC1)=N\NC(=O)c1cnccn1 2.24 µM, O=C(CNCc1ccco1)Nc1ccc(Oc2ccccc2)cc1 17.8 µM, CCc1ccccc1NC(=O)COc1ccc(C(=S)N2CCCC2)cc1 70.8 µM, O=C(Cn1c(/C=C/c2ccccc2)nc2ccccc21)Nc1ccc(F)cc1 50.1 µM, CN(C)c1ccc(C2C3CCCc4ccccc4C3=NN2C)cc1 (stereo unspecified) 25.1 µM, Cc1ccc(C(C)C)c(OCCNCCc2ccccc2)c1 25.1 µM, Cc1ccccc1Nc1nc(NCc2ccco2)c2ccccc2n1 56.2 µM, O=[N+]([O-])c1ccccc1N/N=C1\CC2CC=CC12 (stereo unspecified) 39.8 µM, CN(C)c1ccc(/C=C/C(=O)c2ccccc2)cc1[N+](=O)[O-] 44.7 µM, CCC(=O)Nc1nc2ccccc2n1CCN1CCOCC1 3.16 µM, Oc1ccc(NCc2ccccc2OCc2ccccc2)cc1 79.4 µM and 56.2 µM, CC(C)(C)c1cc(Br)c(O)c(N=Nc2ccc(S(=O)(=O)N3CCOCC3)cc2)c1 5.62 µM

Potency, inactive:
C/C(N)=C(/C#N)C(=O)COC(=O)c1ccc(C#N)cc1, CCOC(=O)c1c(NC(=O)/C=C/c2ccc(OCC)cc2)sc(C(C)=O)c1C, CCOC(=O)c1cc(-c2ccccc2)sc1NC(=O)CCN1C(=O)c2ccccc2C1=O, CCCn1c2ccccc2c2cnn(CC(=O)N(CC)c3cc(C)ccc3C)c(=O)c21, Cn1c(=O)n(CC(=O)O)c(=O)c2c1nc1n2CCCN1c1ccc(Cl)cc1, CCC(=O)N(CC(=O)Nc1sc(C)c(C)c1C(N)=O)C1CCCC1, O=C(Nc1ccccc1C(=O)N1CCCCC1)c1cccs1, O=C(CSCc1nc2scc(-c3cccs3)c2c(=O)[nH]1)Nc1ccccn1
